Where “and” joins values, the source holds several entries; their conditions need not be identical. Identical values can stand only once. Like-named read-outs stand apart in the source and are kept apart here. For some of these results: Not every detail of the peptide structures is certain; ends, links or a residue may be inferred. At least one compound was matched to its structure with a doubt left. Some entries share one result that the patent states for a list of compounds. Some ranges recur; such a range may be that of the whole group of compounds. Positions of bridges follow the written chain, without caps; N, C: chain ends. Residues, ends and D or L forms follow the SMILES beside them.
What was measured:
[1] = target: αvβ3 integrin (Homo sapiens, UniProt P05106+P06756); test: Yeast-displayed peptide binding to soluble αvβ3 integrin, flow cytometry; settings: for binding to αvβ3 integrin relative to starting mutant RGD-EETI#3 (FN-RGD): displayed on the yeast cell surface, gross estimate
Method: The yeast display construct shown in FIG. 1A has the general orientation: Aga2-HA-engineered knottin—c-myc epitope, with the c-myc epitope at the carboxy terminus of the peptide. […] Bound integrin is detected with an anti-integrin antibody, labeled with FITC.
Below is a typical protocol to label a yeast library samples for sorting by flow cytometry (FACS): • 1. Want 2×10^6 cells, OD600 of […] • 2. Add 1 mL PBS/BSA (phosphate buffered saline containing 1 mg/mL bovine serum albumin) to wash cells • 3. Spin down cells 3 min at 8000 RPM • 4. Remove supernatant using vacuum • 5. Re-suspend in 40 μL PBS/BSA containing proper amount of integrin (100 nM [2.5 μL of stock αvβ3]; no anti-cmyc at this point) • 6. Incubate for 1.5 h at r.t (w/tumbling) • 7. Add 1:250 dilution of (chick anti-cmyc) to labeling solution • 8. […] Incubate 1 h at 4° C. (w/tumbling) • 10. Keep on ice after this step. • 11. Spin down cells 3 min at 8000 RPM, 4° C. and vacuum supernatant • 12. Repeat wash steps 2-4 • 13. Re-suspend in 40 μL PBS/BSA containing proper amount of secondary labels (secondary labeling is simultaneous) • i. Anti-integrin Ab (FITC conj): 1:25 dilution+Anti-chick (Alexa 555): 1:100 dilution • ii. Positive control: Anti-chick (Alexa 555): 1:100 dilution (for FACS compensation) • iii. Positive control: Anti-chick (Alexa 488): 1:100 dilution (for FACS compensation) • 14. Incubate on ice 30 min and keep in dark (lid on ice bucket) • 15. Spin down cells at 3 min at 8000 RPM, 4° C. and vacuum supernatant • 16. Repeat steps 2-4: Add 1 mL PBS/BSA, pellet cells, vacuum supernatant • 17. Leave pelleted cells on ice until use. Fluorescent Cell Sorting
Commercially available flow cytometers can measure fluorescence emissions at the single-cell level at four or more wavelengths, at a rate of approximately 50,000 cells per second (Ashcroft and Lopez, 2000). Typical flow cytometry data are shown in FIG. 4-7, in which yeast have been labeled with two different color fluorescent probes to measure protein expression levels and bound soluble ligand (in this case integrin receptor). A ‘diagonal’ population of cells results due to variation in protein expression levels on a per cell basis: cells that express more protein will bind more ligand. The equilibrium binding constant (Kd) can be determined by titration of soluble ligand, and the dissociation rate constant (koff) can be measured through competition binding of unlabeled ligand. […]
Cell sorting was carried out on a FACSVantage (BD Biosciences) multiparameter laser flow cytometer and cell sorter. Before sorting, fluorescent staining was carried out as described above, so that analysis of integrin binding and c-myc expression levels were detected, as described above. […]

[2] = target: T1, αvβ3 integrin on U87MG glioblastoma cells (Homo sapiens, UniProt P05106+P06756); test: 125I-echistatin competition binding to U87MG glioblastoma cells
T1 construct: host or cells: U87MG glioblastoma cells
Method: FIG. 9 is a graph showing normalized competition plotted against peptide concentration in an integrin-binding assay on U87MG glioblastoma cells.
U87MG glioblastoma cells, which express ˜10^5 αvβ3 integrin receptors per cell, were used for these studies. […] An EETI-based polypeptide with a scrambled RDG amino acid sequence, designated FN-RDG, served as a negative control.
Half-maximal inhibitory concentrations (IC50) […] of data measured on at least three separate days. Data for unlabeled and Cy5.5-labeled peptides are shown. Site-specific labeling of RGD miniproteins with a near-infrared optical imaging probe: The free N-terminal amine of our polypeptides was used for site-specific attachment of Cy5.5, a near infrared imaging probe.
An αvβ3 integrin receptor binding assay is performed to determine the relative affinities of the mock-PET tracers compared to their unlabeled polypeptides. Briefly, 2×10^5 U87MG glioblastoma cells are incubated with 0.06 nM ^125I-echistatin in integrin binding buffer (25 mM Tris-HCl, pH 7.4, 150 mM NaCl2 1 mM CaCl2 1 mM MgCl2, 1 mM MnCl2, 0.1% BSA), in the presence of increasing concentrations of mock-PET tracers at room temperature. After incubation for 3 h, cells are pelleted by centrifugation at 1500 RPM and washed three times in binding buffer to remove unbound ligands. The radioactivity remaining in the cell pellet is measured by γ counting. IC50 values are determined by plotting the % competition and using a four-point binding equation (Kaleidagraph) to fit the data.

[3] = read-out: IC50, competition with 125I-echistatin, Cy5.5-labeled peptides (Cy5.5: Yes), U87MG tumor cells
[4] = read-out: IC50, competition with 125I-echistatin, unlabeled peptides (Cy5.5: No), U87MG tumor cells

Compound: CC(C)[C@@H]1NC(=O)[C@@H]2CSSC[C@H](NC(=O)CN)C(=O)N3CCC[C@H]3C(=O)N[C@@H](CCC(N)=O)C(=O)NCC(=O)N[C@@H](CCCNC(=N)N)C(=O)NCC(=O)N[C@@H](CC(=O)O)C(=O)N[C@@H](Cc3c[nH]c4ccccc34)C(=O)N[C@@H](C)C(=O)N3CCC[C@H]3C(=O)N[C@@H]([C@@H](C)O)C(=O)N[C@@H](CO)C(=O)N[C@H]3CSSC[C@H](NC1=O)C(=O)NCC(=O)N1CCC[C@H]1C(=O)N[C@@H](CC(N)=O)C(=O)NCC(=O)N[C@@H](Cc1ccccc1)C(=O)N[C@H](C(=O)NCC(=O)O)CSSC[C@H](NC(=O)[C@H](CC(=O)O)NC(=O)[C@H](CO)NC(=O)[C@H](CC(=O)O)NC(=O)[C@H](CCC(N)=O)NC(=O)[C@H](CO)NC3=O)C(=O)N[C@@H](CCCNC(=N)N)C(=O)N[C@@H](C)C(=O)NCC(=O)N2 [2.5D]
- binding to αvβ3 integrin relative to starting mutant RGD-EETI#3 (FN-RGD) [1]: 2-3 ×
- IC50 [2, 3]: 4.2 ± 0.9 nM
- IC50 [2, 4]: 19 nM and 16 nM

Compound: CC(C)C[C@@H]1NC(=O)[C@@H]2CSSC[C@@H]3NC(=O)[C@H]([C@@H](C)O)NC(=O)[C@H](C)NC(=O)[C@H](C)NC(=O)[C@@H]4CCCN4C(=O)[C@H](CC(=O)O)NC(=O)[C@H](CSSC[C@H](NC(=O)CN)C(=O)N[C@@H](C(C)C)C(=O)N[C@@H](CCCNC(=N)N)C(=O)N[C@@H](CC(C)C)C(=O)N[C@@H](Cc4c[nH]cn4)C(=O)N[C@@H](CCC(=O)O)C(=O)N[C@@H](CO)C(=O)N2)NC(=O)[C@H](CSSC[C@@H](C(=O)N[C@@H](CCCNC(=N)N)C(=O)O)NC(=O)[C@H](Cc2ccc(O)cc2)NC(=O)[C@@H]2CSSC[C@H](NC(=O)[C@H](Cc4ccc(O)cc4)NC3=O)C(=O)N[C@@H](C(C)C)C(=O)N[C@@H](CCC(=O)O)C(=O)N[C@@H](CCCNC(=N)N)C(=O)NCC(=O)N[C@@H](CC(=O)O)C(=O)NCC(=O)N[C@@H](CC(N)=O)C(=O)N[C@@H](CCCNC(=N)N)C(=O)N[C@@H](CCCNC(=N)N)C(=O)N2)NC(=O)[C@@H]2CCCN2C(=O)[C@H](C(C)C)NC(=O)[C@H](CCC(N)=O)NC(=O)[C@H](CCC(N)=O)NC(=O)CNC1=O [6E] (H-GCVRLHESCLGQQVPCCDPAATCYCVERGDGNRRCYCR-OH; disulfide 2-17, 9-23, 16-37, 25-35 (inferred); N-terminus and C-terminus assumed)
- IC50 ([2]; read-out: IC50, competing off binding of 125I-echistatin, synthesized Agouti peptides): 130 ± 20 nM

Compound: CC(C)C[C@@H]1NC(=O)[C@@H]2CSSC[C@@H](C(=O)NCC(=O)O)NC(=O)[C@H](Cc3ccccc3)NC(=O)CNC(=O)[C@H](CC(N)=O)NC(=O)[C@@H]3CCCN3C(=O)CNC(=O)[C@@H]3CSSC[C@H](NC(=O)[C@H](CO)NC(=O)[C@H](CO)NC(=O)[C@H](C)NC(=O)[C@@H]4CCCN4C(=O)[C@H](CO)NC(=O)[C@H](CC(=O)O)NC(=O)CNC(=O)[C@H](CCCNC(=N)N)NC(=O)CNC(=O)[C@H]([C@@H](C)O)NC(=O)[C@H](C(C)C)NC(=O)[C@@H](NC(=O)CN)CSSC[C@H](NC(=O)CNC(=O)[C@H](C)NC1=O)C(=O)N[C@@H](C(C)C)C(=O)N3)C(=O)N[C@@H](CCCCN)C(=O)N[C@@H](CCC(N)=O)C(=O)N[C@@H](CC(=O)O)C(=O)N[C@@H](CO)C(=O)N[C@@H](CC(=O)O)C(=O)N2 [RGD-EETI#3] (H-GCVTGRGDSPASSCKQDSDCLAGCVCGPNGFCG-OH; disulfide 2-24, 14-26, 20-32; N-terminus and C-terminus assumed)
- Kd ([1]; read-out: Kd, binding estimated, estimated range): 100 to 200 nM
- IC50 [2, 3]: 33.9 ± 13 nM
- IC50 [2, 4]: 370 ± 150 nM

Compound: CC(C)C[C@@H]1NC(=O)[C@@H]2CSSC[C@@H](C(=O)NCC(=O)O)NC(=O)[C@H](Cc3ccccc3)NC(=O)CNC(=O)[C@H](CC(N)=O)NC(=O)[C@@H]3CCCN3C(=O)CNC(=O)[C@@H]3CSSC[C@H](NC(=O)[C@H]([C@@H](C)O)NC(=O)[C@H](CC(C)C)NC(=O)[C@@H]4CCCN4C(=O)[C@@H]4CCCN4C(=O)[C@H](CC(N)=O)NC(=O)[C@H](CC(=O)O)NC(=O)CNC(=O)[C@H](CCCNC(=N)N)NC(=O)[C@@H]4CCCN4C(=O)[C@H](CCCNC(=N)N)NC(=O)[C@@H]4CCCN4C(=O)[C@@H](NC(=O)CN)CSSC[C@H](NC(=O)CNC(=O)[C@H](C)NC1=O)C(=O)N[C@@H](C(C)C)C(=O)N3)C(=O)N[C@@H](CO)C(=O)N[C@@H](CCC(N)=O)C(=O)N[C@@H](CC(=O)O)C(=O)N[C@@H](CO)C(=O)N[C@@H](CC(=O)O)C(=O)N2 [2.5F]
- IC50 [2, 3]: 3.4 ± 0.8 nM
- IC50 [2, 4]: 26 ± 5 nM

Compound: GCHVGRGDWAPEECKQDSDCQAGCVCGPNGFCG [2.5A]
- binding to αvβ3 integrin relative to starting mutant RGD-EETI#3 (FN-RGD) [1]: 2-3 ×

Compound: CC[C@H](C)[C@@H]1NC(=O)[C@H]([C@@H](C)O)NC(=O)[C@@H](NC(=O)CN)CSSC[C@@H]2NC(=O)CNC(=O)[C@H](C)NC(=O)[C@H](CC(C)C)NC(=O)[C@@H]3CSSC[C@@H](C(=O)NCC(=O)O)NC(=O)[C@H](Cc4ccccc4)NC(=O)CNC(=O)[C@H](CC(N)=O)NC(=O)[C@@H]4CCCN4C(=O)CNC(=O)[C@H](CSSC[C@H](NC(=O)[C@H](CCC(=O)O)NC(=O)[C@H](CO)NC(=O)[C@@H]4CCCN4C(=O)[C@H](C)NC(=O)[C@H](Cc4c[nH]c5ccccc45)NC(=O)[C@H](CC(=O)O)NC(=O)CNC(=O)[C@H](CCCNC(=N)N)NC(=O)CNC1=O)C(=O)N[C@@H](CO)C(=O)N[C@@H](CCC(N)=O)C(=O)N[C@@H](CC(=O)O)C(=O)N[C@@H](CO)C(=O)N[C@@H](CC(=O)O)C(=O)N3)NC(=O)[C@H](C(C)C)NC2=O [1.5B]
- binding to αvβ3 integrin relative to starting mutant RGD-EETI#3 (FN-RGD) [1]: 2-3 ×
- IC50 [2, 3]: 6.4 ± 3.3 nM
- IC50 [2, 4]: 13 ± 3.3 nM

From patent US9265845B2, “Imaging methods using engineered integrin binding peptides” (The Board of Trustees of the Leland Stanford Junior …, priority 2006, dated 2016)
